# Experimental data: the supplement of paper PMC7826260
# The other results are listed elsewhere or left out. Viral Rep nickase domains cut single-stranded DNA in vitro at 3 µM enzyme and 37 °C for 1 h; the strands have 90 letters, of which the middle is given. A value is the log2 ratio of uncut reads to the pool without enzyme; the lower, the more was cut; hits are not called. Because reads are shares of a total, they shift together, so uncut sequences can rise above 0 when many others are cut.
# Tests used:
# Test in all cases: uncleaved DNA left, log2 of reads against the no-enzyme library (log2 ratio); higher = less cleavage (more negative = more Rep cleavage of the k-mer); sequences stand for … in CTCGTCCG…ACCGGAGA
# [1] = system: T1, Rep nickase domain of Muscovy duck circovirus
# T1 sequence (protein, residues 1-111, tag omitted): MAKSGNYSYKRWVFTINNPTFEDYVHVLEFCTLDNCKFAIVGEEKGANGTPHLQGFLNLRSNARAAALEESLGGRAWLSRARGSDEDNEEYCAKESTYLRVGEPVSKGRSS
# Experimental: (§1)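 A pool of 90-nt single-stranded DNAs with seven random bases just before the constant AC of the nick site (name = the seven bases) was cut by 3 µM recombinant His6-SUMO-tagged Rep nickase domain (300 nM DNA, 50 mM HEPES pH 8.0, 50 mM NaCl, 1 mM MnCl2, 1 h, 37 °C, three replicates). Uncut DNA was amplified and sequenced.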
# [2] = system: T2, Rep nickase domain of banana bunchy top virus
# T2 sequence (protein, residues 1-94, tag omitted): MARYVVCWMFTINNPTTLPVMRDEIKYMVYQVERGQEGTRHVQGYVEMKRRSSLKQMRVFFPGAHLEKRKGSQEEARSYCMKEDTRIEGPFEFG
# Experimental: as §1
# [3] = system: T3, Rep nickase domain of cabbage leaf curl virus
# T3 sequence (protein, residues 1-116, tag omitted): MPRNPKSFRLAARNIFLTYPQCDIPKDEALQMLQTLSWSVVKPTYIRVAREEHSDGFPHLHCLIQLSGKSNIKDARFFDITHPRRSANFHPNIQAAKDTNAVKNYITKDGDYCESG
# Experimental: as §1
# [4] = system: T4, Rep nickase domain of chickpea chlorotic dwarf virus
# T4 sequence (protein, residues 1-124, tag omitted): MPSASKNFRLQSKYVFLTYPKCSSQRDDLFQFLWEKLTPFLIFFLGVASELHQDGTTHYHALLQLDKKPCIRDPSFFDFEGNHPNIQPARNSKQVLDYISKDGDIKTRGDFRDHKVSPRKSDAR
# Experimental: as §1
# [5] = system: T5, Rep nickase domain of faba bean necrotic yellows virus
# T5 sequence (protein, residues 1-98, tag omitted): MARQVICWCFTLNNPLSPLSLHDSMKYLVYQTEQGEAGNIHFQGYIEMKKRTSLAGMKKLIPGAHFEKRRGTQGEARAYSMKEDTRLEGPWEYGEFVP
# Experimental: as §1
# [6] = system: T6, Rep nickase domain of maize striate mosaic virus
# T6 sequence (protein, residues 1-117, tag omitted): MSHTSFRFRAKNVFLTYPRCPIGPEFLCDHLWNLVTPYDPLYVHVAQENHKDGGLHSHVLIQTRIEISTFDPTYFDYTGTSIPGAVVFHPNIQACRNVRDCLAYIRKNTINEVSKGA
# Experimental: as §1
# [7] = system: T7, Rep nickase domain of porcine circovirus 2
# T7 sequence (protein, residues 2-116, tag omitted): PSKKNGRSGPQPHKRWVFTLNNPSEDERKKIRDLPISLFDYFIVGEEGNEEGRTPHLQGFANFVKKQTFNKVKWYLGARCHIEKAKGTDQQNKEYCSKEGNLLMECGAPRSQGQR
# Experimental: as §1
# [8] = system: T8, Rep nickase domain of tomato golden mosaic virus
# T8 sequence (protein, residues 1-124, tag omitted): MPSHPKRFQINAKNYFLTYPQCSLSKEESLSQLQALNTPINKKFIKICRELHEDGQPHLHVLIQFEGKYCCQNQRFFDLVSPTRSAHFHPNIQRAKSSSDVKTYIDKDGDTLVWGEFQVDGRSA
# Experimental: as §1
# [9] = system: T9, Rep nickase domain of tomato yellow leaf curl virus
# T9 sequence (protein, residues 1-136, tag omitted): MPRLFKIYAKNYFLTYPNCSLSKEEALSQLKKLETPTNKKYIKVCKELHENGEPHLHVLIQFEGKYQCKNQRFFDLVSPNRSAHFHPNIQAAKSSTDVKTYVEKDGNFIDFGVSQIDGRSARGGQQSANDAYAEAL
# Experimental: as §1
# [10] = system: T10, Rep nickase domain of wheat dwarf virus
# T10 sequence (protein, residues 1-137, tag omitted): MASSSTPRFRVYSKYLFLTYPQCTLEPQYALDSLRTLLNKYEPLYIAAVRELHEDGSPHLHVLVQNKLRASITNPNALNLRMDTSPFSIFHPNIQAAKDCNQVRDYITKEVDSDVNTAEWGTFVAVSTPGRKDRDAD
# Experimental: as §1
Sequence,uncleaved DNA left (log2) [1],uncleaved DNA left (log2) [2],uncleaved DNA left (log2) [3],uncleaved DNA left (log2) [4],uncleaved DNA left (log2) [5],uncleaved DNA left (log2) [6],uncleaved DNA left (log2) [7],uncleaved DNA left (log2) [8],uncleaved DNA left (log2) [9],uncleaved DNA left (log2) [10]
TGCCACC,-0.0304,0.00663,0.0941,0.138,-0.0192,0.156,-0.259,-0.221,0.0291,0.0049
CTTTCCG,-0.0244,0.0616,-0.857,0.0468,0.0725,-0.907,0.233,-0.0239,0.12,0.0271
AGCTCGA,0.021,-0.0903,-0.103,0.171,-0.0259,-0.402,-0.154,-0.0452,-0.0202,-0.00411
CGATTCG,-0.149,-0.0933,-0.815,-0.468,-0.000858,-0.887,0.218,-0.2,0.125,-0.046
GAGTGGT,-0.118,-0.723,0.292,0.441,-0.637,1.2,-3.01,0.114,0.132,0.0595
AGCTTTC,-0.145,-0.169,-0.0471,0.0985,-0.158,-0.428,-0.245,-0.188,-0.113,-0.113
ATAGGCG,-0.0493,-0.0513,-0.702,0.803,-0.0289,-0.219,0.0563,-0.0512,-0.0638,-0.246
TTGGCCC,0.0162,0.0767,0.217,0.0823,0.0411,-0.224,-0.0925,-0.132,0.0836,0.0212
TCAGTGG,0.0197,-0.154,-0.126,-0.0314,0.00516,-0.592,0.165,-0.0479,-0.0454,-0.0325
CTAACCT,-0.065,-0.0731,-0.335,-2.57,0.0253,-0.62,-0.972,-0.0137,0.0256,-0.108
CGGGTTA,0.0103,-0.0302,0.264,0.147,-0.0618,0.988,-0.0786,-0.106,-0.161,-0.12
TGCCATT,-0.00226,-0.0256,0.237,-0.584,-0.0122,0.0913,-0.185,-0.0743,-0.0294,0.171
GCGGACG,0.131,0.135,0.634,1.57,0.204,1.49,0.318,0.134,0.13,0.17
TCAGTCT,-0.142,-0.121,-0.24,-2.08,-0.128,-0.591,-0.206,-0.207,-0.225,-0.228
CTGCGAA,-0.0669,-0.15,-0.697,-0.39,-0.0951,-1.04,0.16,-0.138,0.0279,-0.0553
TATAGCC,0.121,0.000198,-0.0906,-0.529,0.106,-0.989,0.0544,-0.0564,0.0273,0.0319
TCGCGGC,-0.0073,-0.0864,-0.16,-0.594,-0.13,-0.739,0.0681,-0.11,-0.0166,-0.167
CGAGGCC,0.157,0.135,0.209,0.428,-0.118,0.00226,0.0356,-0.00794,0.0555,-0.0444
CAGATGC,0.0458,-0.136,-0.491,-0.545,-0.0443,-1.04,0.161,-0.099,-0.00151,-0.0484
ACCCGGT,0.0738,-0.0575,-0.0909,0.33,0.0246,0.0308,-0.0953,0.0545,-0.0601,-0.0434
CTGTAAT,-2.24,-0.715,-0.0815,-1.27,-1.07,-0.506,-3.47,-0.0244,0.00549,-0.0801
TTAGAAG,0.0685,-0.0292,-0.747,-0.797,0.0426,-1.23,0.0525,0.155,0.0321,-0.0849
CCCTTAC,-0.0532,-0.245,-0.209,-2.1,-0.187,-0.809,-0.138,-0.278,-0.202,-0.209
TTAACGC,0.11,-0.0741,-0.448,-0.684,-0.0036,-0.734,0.124,0.0413,-0.00254,-0.046
ACGCCAG,-0.0675,-0.0987,-0.655,-0.669,-0.0175,-1.12,0.015,-0.0601,-0.148,-0.262
AGCGCAG,0.0153,0.122,0.0466,0.535,-0.031,1.31,0.11,0.14,-0.00909,0.0962
TCGTAAT,-1.93,-0.274,-0.391,-1.4,-1.08,-0.151,-3.58,0.132,0.081,-0.152
CGATCCA,-0.0506,-0.0457,-0.017,-0.478,-0.00132,-0.195,-0.0273,-0.036,0.00495,-0.00581
TTCACCT,-0.0673,0.0447,0.133,-1.99,0.00116,0.0968,-0.47,-0.0746,0.0567,0.0556
TAAGGCC,0.0671,0.0384,0.129,0.047,0.0394,0.447,-0.125,0.132,0.051,0.0531
